Measurements taken from PubChem BioAssay AID485344 (National Center for Advancing Translational Sciences (NCATS), 2010).
In all, about 340,000 compounds went through this assay and about 6,900 (2%) were called active. Cut-off read from the data, not from the text of the source: active = inhibition above about 30%; inactive = below that, where a call was filed. The list shows a part of the results, in another mix than the full data. Entries without a call were filed so in the source.

biological target: D(2) dopamine receptor (Homo sapiens) (UniProt P14416); assay: HTS Assay for Allosteric Antagonists of the Human D2 Dopamine Receptor: Primary Screen for Antagonists; details: HEK293 TREx D2 cells, calcium flux, dopamine EC80; at 10 µM; stronger effect = higher value; note: 0% is about no effect
How it was run: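 Calcium flux kinetic readout in an inducible HEK293 TREx D2 line plated overnight at 30 C. After 180 s compound exposure, an EC80 dopamine challenge follows with another 180 s kinetic read to detect antagonism.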

Sequence of UniProt P14416 (P14416 whole entry, looked up): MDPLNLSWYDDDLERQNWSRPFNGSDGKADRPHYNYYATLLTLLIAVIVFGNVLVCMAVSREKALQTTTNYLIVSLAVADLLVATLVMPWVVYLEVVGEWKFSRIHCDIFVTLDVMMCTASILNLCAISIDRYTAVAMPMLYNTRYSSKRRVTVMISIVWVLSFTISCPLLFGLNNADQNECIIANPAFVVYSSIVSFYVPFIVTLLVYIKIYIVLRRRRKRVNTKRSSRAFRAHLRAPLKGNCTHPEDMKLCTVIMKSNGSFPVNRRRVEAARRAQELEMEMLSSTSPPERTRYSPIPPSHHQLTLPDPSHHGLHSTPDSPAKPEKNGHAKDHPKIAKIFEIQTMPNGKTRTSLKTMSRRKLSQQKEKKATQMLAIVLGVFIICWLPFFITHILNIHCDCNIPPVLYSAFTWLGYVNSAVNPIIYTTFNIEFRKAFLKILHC

SMILES	inhibition
Cc1ccc(F)cc1NC(=O)CCc1c(C)nn(-c2ccc(N3CCOCC3)nn2)c1C	9.53%
Cc1ccccc1S(=O)(=O)N(CC(O)CN1CCCCC1)c1ccccc1 (configuration not stated)	active: 53.7%
CC1Cn2c(C(=O)NCCc3ccc(Cl)cc3)cc3cccc(c32)S1 (configuration not stated)	1.78%
Cc1c(C(=O)N2CCCC2)oc2c1-c1nn(CC(=O)NCc3ccccc3Br)cc1CC2	-12.1%
Cc1ccc(/C=C/c2onc(C)c2S(=O)(=O)N2CCC(C(=O)N3CCOc4ccc(C)cc43)CC2)cc1	-19.3%
COc1ccc(C)cc1NC(=O)CCc1c(C)nn(-c2ccc(N3CCCCC3)nn2)c1C	9.59%
COc1ccc(NC(=O)CCS(=O)(=O)c2nc(-c3ccc4c(c3)OCO4)cc(C(F)(F)F)n2)cc1	-10.4%
CSc1ccc(C2CC(=O)Oc3c2c(=O)n(C)c2ccccc32)cc1 (configuration not stated)	-21.8%
COc1ccccc1CNC(=O)C(C)n1ccc2cc(S(=O)(=O)N3CCCC3)ccc21 (configuration not stated)	0.891%
COc1ccc(CNC(=O)c2ccc3nc(CCc4ccccc4)oc3c2)cc1	12.2%
Cc1ccc(NC(=O)C2CCN(S(=O)(=O)c3ccc4c(c3)NC(=O)CO4)CC2)cc1	active: 32%
O=S(=O)(NCC1CCN(Cc2ccccc2)CC1)c1ccccc1C(F)(F)F	active: 53.9%
Cc1ccc(NC(=O)CSc2nc3c([nH]c4ccccc43)c(=O)n2-c2ccccc2)cc1Cl	-23.7%
CCOc1ccc(NC(=O)C2CCN(c3nnc(C)c4c(C)n(-c5ccccc5)nc34)CC2)cc1	1.52%
CCOC(=O)c1c(C)oc2nc(C)nc(N3CCN(c4ccccc4F)CC3)c12	0.129%
Cc1ccc(-c2[nH]c3c(c2-c2c(-n4cccc4)n(C)c(=O)[nH]c2=O)c(=O)[nH]c(=O)n3C)cc1	3.07%
Cc1ccc(C2Nc3cc(C)c(C)cc3-n3c(-c4ccccc4)c4c(=O)n(C)c(=O)n(C)c4c32)o1 (configuration not stated)	19.2%
Cc1cccc(N2CCN(C(=O)C3CCN(C(=O)c4cc5sccc5n4C)CC3)CC2)c1C	-17.3%
Cc1[nH]n2c(=O)cc(-c3ccc(Cl)cc3)nc2c1-c1ccccc1	22.1%
Cc1ccccc1CNC(=O)Cc1ccc(NC(=O)N2CCCCc3ccccc32)cc1	-2.88%
Cn1c(=O)c2c(nc(N3CCOCC3)n2Cc2cccc(Br)c2)n(C)c1=O	5.01%
Cc1nn2c(-c3ccco3)ccnc2c1-c1ccc(Br)cc1	17.9%
CCOc1ccc(C(=O)c2cn(CC(=O)Nc3cccc(OC)c3)c3cc4c(cc3c2=O)OCCO4)cc1	-15.4%

SMILES	inhibition
Cc1c(C(=O)N2CCCCC2)c(S(=O)(=O)NCc2ccc(N(C)C)cc2)c(C)n1C	5.33%
Cc1ccc(-c2cc(N)n(-c3ccc(C)cc3)n2)cc1	-4.58%
CCOC(=O)C1(CCOC)CCN(Cc2cccc(OCc3ccccc3)c2)CC1	active: 36.9%
N#Cc1ccc(S(=O)(=O)N2CCC(Oc3cccc(C(F)(F)F)c3)CC2)cc1	-12.3%
CCCNC(=O)C1=CC(c2ccc3c(c2)OCO3)=NS(=O)(=O)N1C	16.4%
COc1cc(OC)c(OC)cc1CN1CCc2nc(Nc3ccc4c(c3)OCCO4)ncc2C1	16.5%
COc1ccc(CNC(=O)C(=O)Nc2c3c(nn2-c2ccccc2)CSC3)cc1	22.3%
CCN(c1ccccc1)S(=O)(=O)c1cc(Br)cc2c1N(C(=O)C1CC1)CC2	-7.33%
Cc1ccc(C(=O)N2CCc3cc(CNC(=O)CSc4ccccc4)ccc32)cc1	15.2%
Cc1ccc(-c2cc(C(=O)NCc3cnn(C)c3C)c3ccccc3n2)cc1C	-2.2%
Cc1cccc(-c2c3c(=O)n(C)c(=O)n(C)c3c3c(C)nc4ccccc4n23)c1	-26.9%
N#Cc1c(-c2cccs2)cc(-c2cccnc2)nc1N	active: 48.7%
O=C(NCCc1csc(-c2ccc(C(F)(F)F)cc2)n1)c1ccc(F)c(F)c1	23.5%
CCOc1ccc(-c2cc(CCCC(=O)NCCc3ccc(Cl)cc3)no2)cc1	6.54%
COC(=O)c1c(-c2cccs2)csc1NC(=O)c1ccc(Br)cc1	0.779%
COC(=O)c1c(-c2cccs2)csc1NC(=O)c1cccc(Cl)c1	3.31%
Cc1cccc(NC(=O)CSc2nc(-c3cccs3)cc(C(F)(F)F)c2C#N)c1C	-15.4%
CCN(c1cccc(C)c1)S(=O)(=O)c1ccc(-n2cccn2)cc1	3.52%
CCc1ccc(NC(=O)CCS(=O)(=O)c2cc3c(cc2Cl)NC(=O)CO3)cc1	23.4%
O=C(NCc1cccs1)c1nn(-c2ccccc2Cl)nc1CO	-9.35%
COCCCNc1nc2c(S(=O)(=O)c3ccccc3)nnn2c2ccc(Cl)cc12	5.4%
CC1=C(C(=O)Nc2ccccc2)C(c2ccccc2C)n2nc(SCC(=O)c3ccc(C)cc3)nc2N1 (configuration not stated)	1.65%
Cc1[nH]n(-c2ccccc2)c(=O)c1C(c1cc(Cl)ccc1O)c1c(C)[nH]n(-c2ccccc2)c1=O	5.82%

SMILES	inhibition
CCOC(=O)c1ccccc1NC(=O)N1CCN(Cc2cc(=O)n3nc(-c4ccccc4)sc3n2)CC1	-20%
CC1CCN(C(=O)Cn2c(=O)n(CCCCCC(=O)NCc3ccccc3Cl)c(=O)c3sccc32)CC1	14%
CC(=O)Nc1cc(-c2nc3cc(Cl)ccc3o2)ccc1C	11%
Cc1cc(Cl)ccc1NC(=O)Cn1nc(C)c2c(C)n(-c3ccccc3)nc2c1=O	-1.99%
Cc1ccc(Cl)cc1Nc1nn2c(=O)c3ccc(C(=O)Nc4ccc(F)cc4)cc3nc2s1	11.2%
CN(C)C1(CNC(=O)COc2ccc([N+](=O)[O-])cc2)CCCCC1	16.7%
CCC1CN(C(=O)N2CCC(C(=O)NCCc3cc(OC)ccc3OC)CC2)c2ccccc2O1 (configuration not stated)	-2.07%
CCN(CC)S(=O)(=O)c1ccc2c(c1)N(CC(=O)N1CCN(c3cccc(Cl)c3)CC1)C(=O)CO2	-6.12%
CCn1c(CN2CCOCC2)nc2cc(NC(=O)c3ccccc3[N+](=O)[O-])ccc21	8.64%
Cc1ccc(NC(=O)N2CCc3cc(S(=O)(=O)N4CCC(C)CC4)ccc32)cc1	2.77%
CC(C)Oc1ccc(CNC(=O)c2ccc(CS(=O)c3cccc(Cl)c3)o2)cc1 (configuration not stated)	-5.97%
COc1ccccc1N1CCN(C(=O)Cn2ncc3ccsc3c2=O)CC1	0.858%
COc1cccc(-n2cc(C(=O)Nc3cccc(C(F)(F)F)c3)c3ccccc3c2=O)c1	12.8%
CCN(C(=O)Cn1c(=O)n(CCCS(=O)(=O)C2CCCCC2)c(=O)c2ccccc21)c1cccc(C)c1	-7.82%
O=C(Nc1nnc(-c2cc(Cl)ccc2Cl)o1)c1ccc2c(c1)OCCO2	-6.58%
CCOC(=O)C1CCC(CN(Cc2ccc(OC)cc2)S(=O)(=O)c2ccc(F)c(C(=O)Nc3ccc(C)c(C)c3)c2)CC1 (configuration not stated)	-24.4%
CCc1ccc(NS(=O)(=O)c2ccc3oc(=O)c4ncn(CC)c4c3c2)cc1	7.37%
O=c1cc(CSc2ncn[nH]2)[nH]c2ccc(F)cc12	5%
COc1ccc(-n2c(Cc3ccccc3)nnc2SCc2nc(-c3cccs3)no2)cc1	4.27%
CCCc1cc(=O)n2c(C(=O)Nc3ccc(OCC)cc3)c(C(=O)Nc3ccc(C)cc3)sc2n1	-16.6%
COc1ccc(NC(=O)CCS(=O)(=O)c2nc(-c3cccs3)cc(C(F)(F)F)n2)cc1	10.9%
COc1cccc(C2c3c(oc4cc(C)cc(C)c4c3=O)C(=O)N2CCc2ccc(OC)c(OC)c2)c1 (configuration not stated)	12.2%
O=[N+]([O-])c1ccc(N2CCN(CCO)CC2)cc1NCc1ccco1	active: 34.1%

SMILES	inhibition
Cn1c(COc2ccccc2)nnc1SCc1cc(=O)[nH]c2ccccc12	active: 38.7%
CCn1c(SCc2ccccc2C)nc(=O)c2c(C(=O)OC)cc(C3CC3)nc21	-10.8%
Cc1ccc2c(c1)c1c(c(=O)n(-c3cccc(Cl)c3)c(=O)n1CC(=O)NCCC1=CCCCC1)n2C	-0.483%
COc1ccccc1CNC(=O)CCC1N=C2c3ccccc3N=C(SCC(=O)Nc3ccc(F)cc3)N2C1=O (configuration not stated)	-2.69%
CN(CC(=O)NCc1ccc(Cl)cc1)S(=O)(=O)c1ccc2[nH]c3c(c2c1)CCCC3	1.16%
COc1ccc(CNc2nc(-c3ccccc3)nn2S(=O)(=O)c2ccccc2)cc1	-5.53%
COC(=O)CN1C(C(=O)c2ccccc2)=C(OC(=O)c2ccc(F)cc2)c2ccccc2S1(=O)=O	-19.6%
Cc1ccc(S(=O)(=O)c2cnc(SCC(=O)Nc3ccc4c(c3)OCCO4)[nH]c2=O)cc1C	8.58%
COc1cc2nc(NC(=O)c3ccc(S(=O)(=O)N4CCc5ccccc54)cc3)sc2cc1OC	-6.47%
COc1cccc(-n2c(C)nc3cc(C(=O)O)ccc32)c1	3.98%
COc1cccc(-c2nc3c(C#N)c[nH]n3c2NC2CCCC2)c1OC	4.72%
CC1CCCCN1C(=O)c1ccc2c(c1)N(Cc1ccc(F)cc1)C(=O)c1ccccc1S2(=O)=O (configuration not stated)	15.3%
CCN(CCCNC(=O)c1cc2c(=O)n(CC)c3ccccc3c2s1)Cc1ccccc1	-9.96%
Cc1cc(OCC(=O)N2CCC(c3nc4ccccc4s3)CC2)ccc1Cl	-5.95%
O=C(CSc1ncc(-c2ccccc2)[nH]1)Nc1cccc(Br)c1	3.12%
Cc1ccc(-c2nnn3c2nc(NC2CCC(C)CC2)c2ccccc23)cc1 (configuration not stated)	6.51%
COc1ccc(CCNC(=O)CSc2nc3[nH]ncc3c(=O)n2-c2ccccc2OC)cc1OC	active: 36.7%
CC(CCc1ccc(O)cc1)NCc1ccc(Br)cc1 (configuration not stated)	active: 31.7%
Cc1cc2n(n1)CCCN2C(=O)Nc1ccc(F)c(Cl)c1	14.2%
CCC(=O)N1CCc2cc(S(=O)(=O)NCc3ccc(C)cc3)ccc21	-4.53%
CCOc1ccc(N2CC(C)Cn3c2nc2c3c(=O)n(Cc3c(F)cccc3Cl)c(=O)n2C)cc1 (configuration not stated)	7.16%
O=C(Cn1cc(C(=O)c2ccco2)c2ccccc21)Nc1ccccc1	-2.5%
CCOc1ccc(NC(=O)c2ccc(F)c(S(=O)(=O)N(Cc3ccc(C(=O)OC)cc3)Cc3ccc(OC)c(OC)c3)c2)cc1	7.13%
